What all share (assay): glycan array binding signal (z-score within array); higher = stronger binding
Common to all, as to details: glycan notation: IUPAC condensed, linker removed

The target of experiment [1] is Gal(b1-4)GlcNAc(b1-6)GalNAc. The gist of the method: (§1)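 From the Consortium for Functional Glycomics database, 3228 arrays were curated, keeping only those whose protein sequence was available. Binding is given as a within-array Z-score averaged across arrays sharing a protein sequence and across linkers. Negative Z-scores can be read as non-binding.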
In experiment [2] the target is Gal(b1-4)GlcNAc(b1-6)[Gal(b1-3)]GalNAc. The gist of the method:
as §1

Experiment [3] deals with Gal(b1-4)GlcNAc(b1-6)[Gal(b1-4)GlcNAc(b1-3)]GalNAc. The gist of the method: as §1
Another experiment addresses Gal(b1-4)GlcNAc6P. In short, it runs like this:
as §1

Another experiment concerns the target Gal(b1-6)Gal. In short, it runs like this: as §1
In another experiment the target is Gal3S(b1-3)GalNAc. The gist of the method:
as §1

A further experiment concerns the target Gal3S(b1-3)GlcNAc. In short, it runs like this:
as §1

The target of experiment [4] is Gal3S(b1-3)[Fuc(a1-4)]GlcNAc. In short, it runs like this:
as §1

A further experiment has as its target Gal3S(b1-4)Glc. The gist of the method:
as §1

The target in the next experiment is Gal3S(b1-4)Glc6S. The gist of the method:
as §1

A further experiment deals with Gal3S(b1-4)GlcNAc. The gist of the method:
as §1

Experiment [5] addresses Gal3S(b1-4)[Fuc(a1-3)]Glc6S. In short, it runs like this: as §1
Experiment [6] concerns the target Gal3S(b1-4)[Fuc(a1-3)]GlcNAc. In short, it runs like this:
as §1

The target of experiment [7] is Gal3S(b1-4)[Fuc(a1-3)]GlcNAc6S. The gist of the method: as §1
Another experiment deals with Gal3S4S(b1-4)GlcNAc. In short, it runs like this:
as §1

For the next experiment, the target named is Gal3S6S(b1-4)GlcNAc. The gist of the method:
as §1

In a further experiment the target is Gal3S6S(b1-4)GlcNAc6S. The gist of the method:
as §1

The next experiment has as its target Gal4S(b1-4)GlcNAc. In short, it runs like this: as §1
For the next experiment, the target named is Gal4S6S(b1-4)GlcNAc. The gist of the method: as §1
Another experiment addresses Gal6P(b1-4)GlcNAc. The gist of the method: as §1
The next experiment concerns the target Gal6S(b1-3)GlcNAc. The gist of the method:
as §1

The target of a further experiment is Gal6S(b1-3)GlcNAc6S. The gist of the method: as §1
A further experiment addresses Gal6S(b1-4)Glc. In short, it runs like this: as §1

The list shows a part of the results.

B1: Pwp2 (Candida glabrata) (protein)
chain: MGSSHHHHHHSSGLVPRGSHMASKNPVELNNVCTFPNDYGRIPGFTVLVGRLGLLISASDYKELLRYPGAFLIATQDTMTTSPNFELTGFPFFTGLYGLTVFPLDLLVELRGYFVPPNSGQYTFTLSDSDDAAIIFLGNPSAFPCGDLQNWPKPSEEDITVTDHLFPSRTLYLIEGVAYPMRIAYYNGIGAGRLNAAFIDPSGTRHTNWEGYIWQYDPCSTCTYS
With B1, the “glycan array binding signal (z-score)” value in experiment [1] was -0.542; in experiment [2], 1.6; in [3] it was -0.548; with Gal(b1-4)GlcNAc6P, -0.213; with Gal(b1-6)Gal, -0.135; with Gal3S(b1-3)GalNAc, -0.489. In addition, the “glycan array binding signal (z-score)” value with Gal3S(b1-3)GlcNAc was -0.464; in experiment [4] it was 0.007; in the experiment with Gal3S(b1-4)Glc it was -0.429; in the experiment with Gal3S(b1-4)Glc6S, -0.394; with Gal3S(b1-4)GlcNAc it was -0.274; in [5], 0.408. Besides, the “glycan array binding signal (z-score)” value in experiment [6] is -0.293; in experiment [7] it was -0.372; with Gal3S4S(b1-4)GlcNAc it was -0.663; in the experiment with Gal3S6S(b1-4)GlcNAc, -0.853; in the experiment with Gal3S6S(b1-4)GlcNAc6S, -0.545; with Gal4S(b1-4)GlcNAc, -0.626. Also, the “glycan array binding signal (z-score)” value with Gal4S6S(b1-4)GlcNAc was -0.555; with Gal6P(b1-4)GlcNAc it was -0.372; with Gal6S(b1-3)GlcNAc, -0.708; in the experiment with Gal6S(b1-3)GlcNAc6S, -0.223; with Gal6S(b1-4)Glc it was -0.421.

The values above are taken from the supplement of paper PMC8728848.
